Assay results from the supplement of paper PMC4604168 (melanoma cell lines).
The other results are listed elsewhere or left out. Most values come without repeats; read them as rough.

How the values were obtained:
Assay in all cases: cell count relative to DMSO control; melanoma cells; higher = more viable cells
Conditions in all cases: library dose: standard library concentration; 72 h
G361 = tested on: G361
IPC-298 = tested on: IPC-298
IST-MEL1 = tested on: IST-MEL1
LB2518-MEL = tested on: LB2518-MEL
LOXIMVI = tested on: LOXIMVI
MEL-HO = tested on: MEL-HO
MZ2-MEL = tested on: MZ2-MEL
MeWo = tested on: MeWo
RPMI7951 = tested on: RPMI7951
RVH-421 = tested on: RVH-421
SkMel28 = tested on: SkMel28
SkMel2 = tested on: SkMel2
SkMel30 = tested on: SkMel30
SkMel5 = tested on: SkMel5
UACC257 = tested on: UACC257
UACC62 = tested on: UACC62
WM115 = tested on: WM115
WM1716 = tested on: WM1716
WM1745 = tested on: WM1745
WM3526 = tested on: WM3526
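Further: cells treated in 1,536-well plates, then fixed and DAPI-stained, with nuclei counted from automated high-throughput microscope images.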

| Compound | cell count (G361) | cell count (IPC-298) | cell count (IST-MEL1) | cell count (LB2518-MEL) | cell count (LOXIMVI) | cell count (MEL-HO) | cell count (MZ2-MEL) | cell count (MeWo) | cell count (RPMI7951) | cell count (RVH-421) | cell count (SkMel28) | cell count (SkMel2) | cell count (SkMel30) | cell count (SkMel5) | cell count (UACC257) | cell count (UACC62) | cell count (WM115) | cell count (WM1716) | cell count (WM1745) | cell count (WM3526) |
| --- | --- | --- | --- | --- | --- | --- | --- | --- | --- | --- | --- | --- | --- | --- | --- | --- | --- | --- | --- | --- |
| COc1cc([C@@H]2c3cc4c(cc3[C@@H](O[C@@H]3O[C@@H]5CO[C@@H](C)O[C@H]5[C@H](O)[C@H]3O)[C@H]3COC(=O)[C@H]23)OCO4)cc(OC)c1O [etoposide] + CC(C)C[C@H](NC(=O)[C@H](Cc1ccccc1)NC(=O)c1cnccn1)B(O)O [Bortezomib] (first compound 0.1 µM, partner dose 0.005 µM) | 2.1% | 13.8% | 14.7% | 12.1% | 24.1% | 50.3% | 4.5% | 23.3% | 2.6% | 22.5% | 30.7% | 44.9% | 46.2% | 27.9% | 92.2% | 61.1% | 40.5% | 13.8% | 22.8% | 26.8% |
| Cn1cnc2c(F)c(Nc3ccc(Br)cc3Cl)c(C(=O)NOCCO)cc21 [selumetinib] + CC(=O)O[C@@]12CO[C@@H]1C[C@H](O)[C@@]1(C)C(=O)[C@H](O)C3=C(C)[C@@H](OC(=O)[C@H](O)[C@@H](NC(=O)OC(C)(C)C)c4ccccc4)C[C@@](O)([C@@H](OC(=O)c4ccccc4)[C@H]21)C3(C)C [Docetaxel] (first compound 0.075 µM, partner dose 0.0005 µM) | 13.1% | 37.4% | 40.1% | 39.4% | 74.2% | 34% | 28.4% | 24.6% | 23.9% | 43.7% | 17.3% | 15.9% | 36.1% | 36.6% | 73.8% | 48% | 40.7% | 41% | 46.8% | 29.3% |
| Cn1cnc2c(F)c(Nc3ccc(Br)cc3Cl)c(C(=O)NOCCO)cc21 [selumetinib] + NC(=O)c1ccc(N(C(N)=O)c2c(F)cccc2F)nc1-c1ccc(F)cc1F [VX702] (first compound 0.075 µM, partner dose 2 µM) | 58% | 59.5% | 109% | 52.4% | 94.9% | 92.2% | 84.3% | 81.2% | 117% | 83.3% | 41% | 69.3% | 59.1% | 82.5% | 99.7% | 77.7% | 94.7% | 103% | 110% | 60.5% |
| C[C@]1(O)C[C@@H](c2nc(-c3ccc4ccc(-c5ccccc5)nc4c3)c3c(N)nccn32)C1 + Cc1cc(Nc2cc(N3CCN(C)CC3)nc(/C=C/c3ccccc3)n2)n[nH]1 [ENMD2076] (first compound 2 µM, partner dose 0.2 µM) | 75% | 88.5% | 87.5% | 68.8% | 95.7% | 83.9% | 83.2% | 78.5% | 61.1% | 110% | 69.2% | 77.7% | 88.1% | 77.9% | 78.3% | 87.4% | 75.4% | 84% | 41.4% | 69.7% |
| Cn1cnc2c(F)c(Nc3ccc(Br)cc3Cl)c(C(=O)NOCCO)cc21 [selumetinib] + OCc1c[nH]c2ccccc12 [Indole-3-carbinol] (first compound 0.075 µM, partner dose 4 µM) | 61% | 53.4% | 86.9% | 44.8% | 107% | 78.5% | 58.2% | 79.3% | 106% | 69.3% | 47.1% | 48.2% | 73.4% | 74.7% | 86.8% | 80.9% | 71.2% | 63.3% | 67.9% | 50.7% |
| CCN(CC)CCNC(=O)c1c(C)[nH]c(/C=C2\C(=O)Nc3ccc(F)cc32)c1C [sunitinib] + CC(C)C[C@H](NC(=O)[C@H](Cc1ccccc1)NC(=O)c1cnccn1)B(O)O [Bortezomib] (first compound 2 µM, partner dose 0.005 µM) | 1.68% | 14.3% | 13.6% | 3.03% | 48.6% | 47.5% | 4.01% | 19.7% | 16.2% | 2.93% | 33.1% | 47.8% | 26.3% | 21.7% | 75.2% | 57.3% | 37.7% | 19.5% | 26.3% | 31.3% |
| COc1cc([C@@H]2c3cc4c(cc3[C@@H](O[C@@H]3O[C@@H]5CO[C@@H](C)O[C@H]5[C@H](O)[C@H]3O)[C@H]3COC(=O)[C@H]23)OCO4)cc(OC)c1O [etoposide] + Cc1cc(Nc2cc(N3CCN(C)CC3)nc(/C=C/c3ccccc3)n2)n[nH]1 [ENMD2076] (first compound 0.1 µM, partner dose 0.2 µM) | 72.5% | 66.4% | 89.4% | 63.4% | 76.3% | 105% | 77.2% | 81.8% | 103% | 88.8% | 45.4% | 63.2% | 55.6% | 84% | 98.7% | 72.5% | 58.6% | 64.3% | 93.9% | 66.9% |
| Cn1cnc2c(F)c(Nc3ccc(Br)cc3Cl)c(C(=O)NOCCO)cc21 [selumetinib] + O=C(O)c1ccc(-c2c[nH]c3ncc(-c4ccccc4)cc23)cc1C1CCCC1 [GSK650394] (first compound 0.075 µM, partner dose 0.8 µM) | 51.2% | 69.8% | 91.9% | 44.9% | 60.6% | 75.9% | 81.3% | 75.4% | 89.5% | 84.9% | 64% | 70.3% | 74.9% | 74.2% | 101% | 72.9% | 68.5% | 68.9% | 105% | 66.8% |
| C[C@]1(O)C[C@@H](c2nc(-c3ccc4ccc(-c5ccccc5)nc4c3)c3c(N)nccn32)C1 + O=C(CCCCCCC(=O)Nc1ccccc1)NO [vorinostat] (first compound 2 µM, partner dose 0.4 µM) | 57% | 79.4% | 89.6% | 90.1% | 56.8% | 85.2% | 105% | 63.5% | 61.3% | 96.3% | 56.7% | 67.4% | 85.3% | 53.4% | 66.2% | 51.5% | 86.1% | 99.9% | 51.3% | 60.5% |
| COc1cc([C@@H]2c3cc4c(cc3[C@@H](O[C@@H]3O[C@@H]5CO[C@@H](C)O[C@H]5[C@H](O)[C@H]3O)[C@H]3COC(=O)[C@H]23)OCO4)cc(OC)c1O [etoposide] + Nc1ccn([C@@H]2O[C@H](CO)[C@@H](O)C2(F)F)c(=O)n1 [gemcitabine] (first compound 0.1 µM, partner dose 0.002 µM) | 50.8% | 32.4% | 41.9% | 58.9% | 68% | 64.6% | 65.5% | 48.8% | 59.6% | 51.7% | 87.5% | 69.8% | 89.4% | 71.7% | 90.4% | 75.2% | 61.1% | 50.4% | 40.9% | 77.9% |
| CCN(CC)CCNC(=O)c1c(C)[nH]c(/C=C2\C(=O)Nc3ccc(F)cc32)c1C [sunitinib] + COc1cc(Nc2ncc(F)c(Nc3ccc4c(n3)NC(=O)C(C)(C)O4)n2)cc(OC)c1OC [Tamatinib] (first compound 2 µM, partner dose 2 µM) | 66.6% | 84.7% | 66.6% | 106% | 30.7% | 79.6% | 82.4% | 70% | 19.3% | 119% | 51.1% | 72.3% | 80% | 50.6% | 83.5% | 69% | 62.7% | 60.6% | 37% | 50.7% |
| Cn1cnc2c(F)c(Nc3ccc(Br)cc3Cl)c(C(=O)NOCCO)cc21 [selumetinib] + COc1cc2c(Oc3ccc4[nH]c(C)cc4c3F)ncnc2cc1OCCCN1CCCC1 [cediranib] (first compound 0.075 µM, partner dose 2 µM) | 80.6% | 62.9% | 85.9% | 40% | 48.3% | 85.6% | 60.3% | 65.2% | 47.5% | 57.1% | 87.6% | 56.1% | 77.8% | 69.2% | 107% | 62.8% | 71.1% | 72.2% | 83.2% | 67.8% |
| C[C@]1(O)C[C@@H](c2nc(-c3ccc4ccc(-c5ccccc5)nc4c3)c3c(N)nccn32)C1 + Nc1ncn([C@H]2C[C@H](O)[C@@H](CO)O2)c(=O)n1 [decitabine] (first compound 2 µM, partner dose 0.5 µM) | 94.5% | 67.9% | 89.7% | 68% | 69.6% | 92.7% | 76.7% | 58.6% | 59.8% | 105% | 86.3% | 92.1% | 94.5% | 66.7% | 82.9% | 59% | 77.3% | 77.4% | 50.6% | 64.2% |
| CCN(CC)CCNC(=O)c1c(C)[nH]c(/C=C2\C(=O)Nc3ccc(F)cc32)c1C [sunitinib] + Nc1ncn([C@H]2C[C@H](O)[C@@H](CO)O2)c(=O)n1 [decitabine] (first compound 2 µM, partner dose 0.5 µM) | 87.6% | 65.2% | 75.2% | 63.7% | 181% | 75.1% | 85.1% | 60.3% | 82.2% | 112% | 62.4% | 82.1% | 60.6% | 61.7% | 91.1% | 49.3% | 67.3% | 99.7% | 51.5% | 58.5% |
| Cn1cnc2c(F)c(Nc3ccc(Br)cc3Cl)c(C(=O)NOCCO)cc21 [selumetinib] + C[C@]1(c2nc3c(C(N)=O)cccc3[nH]2)CCCN1 [Veliparib] (first compound 0.075 µM, partner dose 7 µM) | 61.7% | 53.4% | 96.1% | 39.4% | 122% | 87.3% | 55.6% | 67.3% | 101% | 80.2% | 50.6% | 47.6% | 60% | 61.3% | 87.6% | 58.8% | 53.4% | 76.8% | 69% | 53.6% |
